Laboratory results: the supplement of paper PMC4967469
Lines with a small IC50 respond at low doses; where the fit passes the top or lowest dose, that dose stands as a limit. AUC is the area under the same curve over the 256-fold range up to the top dose, as a fraction: 1 means no effect, lower means more sensitive. For part of these data: A top dose marked as inferred is not printed in the source and was worked back from the curve model. For part of these data: Where an entry number is given, a second screen of the drug exists; the two often differ.

How the values were obtained:
Assay in all cases: Viability of human cancer cell lines after 72 h of drug (GDSC screen)
YM155 = compound: COCC[n+]1c2c(n(Cc3cnccn3)c1C)C(=O)c1ccccc1C2=O [YM155]; settings: top dose 5.12 µM
Experimental: (§1)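 Human cancer cell lines in 384-well plates, medium with 10% serum, drug for 72 h over a 256-fold dose range (nine 2-fold or five 4-fold steps up to the top dose). Adherent lines were fixed and stained with the nucleic acid dye Syto60, suspension lines read with resazurin; signal relative to control wells, capped at 0 and 100%. One two-parameter sigmoid per drug and line, fitted in a mixed model over all curves with the slope shared within a line.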

Belinostat = compound: O=C(/C=C/c1cccc(S(=O)(=O)Nc2ccccc2)c1)NO [Belinostat]; settings: top dose 20 µM; top dose inferred
Experimental: as §1

JQ1 = compound: Cc1sc2c(c1C)C(c1ccc(Cl)cc1)=N[C@@H](CC(=O)OC(C)(C)C)c1nnc(C)n1-2 [JQ1]
Experimental: as §1

NSC-207895 = compound: CN1CCN(c2ccc([N+](=O)[O-])c3no[n+]([O-])c23)CC1 [NSC-207895]; settings: top dose 20 µM; top dose inferred
Experimental: as §1

FTI-277 = compound: COC(=O)[C@H](CCSC)NC(=O)c1ccc(NC[C@@H](N)CS)cc1-c1ccccc1 [FTI-277]; settings: top dose 1.024 µM; top dose inferred
Experimental: as §1

OSI-906 = compound: C[C@]1(O)C[C@@H](c2nc(-c3ccc4ccc(-c5ccccc5)nc4c3)c3c(N)nccn32)C1 [OSI-906]; settings: top dose 2.56 µM; top dose inferred
Experimental: as §1

Docetaxel = compound: CC(=O)O[C@@]12CO[C@@H]1C[C@H](O)[C@@]1(C)C(=O)[C@H](O)C3=C(C)[C@@H](OC(=O)[C@H](O)[C@@H](NC(=O)OC(C)(C)C)c4ccccc4)C[C@@](O)([C@@H](OC(=O)c4ccccc4)[C@H]21)C3(C)C [Docetaxel]; settings: top dose 0.0125 µM
Experimental: as §1

JNJ-26854165 = compound: c1ccc2c(CCNc3ccc(Nc4ccncc4)cc3)c[nH]c2c1 [JNJ-26854165]; settings: top dose 10 µM
Experimental: as §1

SB-715992 = compound: Cc1ccc(C(=O)N(CCCN)[C@@H](c2nc3cc(Cl)ccc3c(=O)n2Cc2ccccc2)C(C)C)cc1 [SB-715992]; settings: top dose 0.128 µM; top dose inferred
Experimental: as §1

JNK Inhibitor VIII = compound: CCOc1nc(NC(=O)Cc2cc(OC)ccc2OC)cc(N)c1C#N [JNK Inhibitor VIII]; settings: top dose 10 µM; top dose inferred
Experimental: as §1

AMG-706 = compound: CC1(C)CNc2cc(NC(=O)c3cccnc3NCc3ccncc3)ccc21 [AMG-706]; settings: top dose 2 µM; top dose inferred
Experimental: as §1

[1] = top dose 1 µM, screen: GDSC drug entry 1218, top dose inferred
[2] = top dose 2.56 µM, screen: GDSC drug entry 163

| Cell Line | AUC (YM155) | IC50 (YM155) | AUC (Belinostat) | IC50 (Belinostat) | AUC (JQ1; [1]) | IC50 (JQ1; [1]) | AUC (JQ1; [2]) | IC50 (JQ1; [2]) | AUC (NSC-207895) | IC50 (NSC-207895) | AUC (FTI-277) | IC50 (FTI-277) | AUC (OSI-906) | IC50 (OSI-906) | AUC (Docetaxel) | IC50 (Docetaxel) | AUC (JNJ-26854165) | IC50 (JNJ-26854165) | AUC (SB-715992) | IC50 (SB-715992) | AUC (JNK Inhibitor VIII) | IC50 (JNK Inhibitor VIII) | AUC (AMG-706) | IC50 (AMG-706) |
| --- | --- | --- | --- | --- | --- | --- | --- | --- | --- | --- | --- | --- | --- | --- | --- | --- | --- | --- | --- | --- | --- | --- | --- | --- |
| HSC-4 (head and neck, adherent) | 0.041 | < 20 nM | 0.627 | 3140 nM | 0.973 | > 1000 nM | 0.901 | > 2560 nM | 0.87 | > 20000 nM | 0.977 | > 1020 nM | 0.979 | > 2560 nM | 0.401 | 0.382 nM | 0.839 | > 10000 nM | 0.968 | > 128 nM | – | – | – | – |
| HMV-II (melanoma, adherent) | 0.115 | < 20 nM | 0.484 | 1120 nM | 0.881 | > 1000 nM | 0.787 | 1390 nM | 0.927 | > 20000 nM | 0.918 | > 1020 nM | 0.535 | 204 nM | 0.911 | > 12.5 nM | 0.882 | > 10000 nM | 0.935 | > 128 nM | – | – | – | – |
| EFM-19 (breast, adherent) | 0.091 | < 20 nM | 0.491 | 1170 nM | 0.964 | > 1000 nM | 0.702 | 806 nM | 0.904 | > 20000 nM | 0.91 | > 1020 nM | 0.901 | > 2560 nM | 0.568 | 1.32 nM | 0.945 | > 10000 nM | 0.941 | > 128 nM | – | – | – | – |
| Mewo (melanoma, adherent) | 0.106 | < 20 nM | 0.617 | 2800 nM | 0.979 | > 1000 nM | 0.96 | > 2560 nM | 0.962 | > 20000 nM | 0.977 | > 1020 nM | 0.981 | > 2560 nM | 0.815 | 8.66 nM | 0.856 | > 10000 nM | 0.983 | > 128 nM | – | – | – | – |
| M14 (melanoma, adherent) | 0.104 | < 20 nM | 0.592 | 2270 nM | 0.985 | > 1000 nM | 0.604 | 315 nM | 0.963 | > 20000 nM | 0.986 | > 1020 nM | 0.97 | > 2560 nM | 0.671 | 2.42 nM | 0.949 | > 10000 nM | 0.937 | > 128 nM | – | – | – | – |
| IGR-37 (melanoma, adherent) | 0.287 | 85.2 nM | – | – | 0.988 | > 1000 nM | 0.746 | 750 nM | 0.801 | 8770 nM | 0.989 | > 1020 nM | 0.916 | > 2560 nM | 0.604 | 1.46 nM | 0.929 | > 10000 nM | 0.939 | > 128 nM | 0.974 | > 10000 nM | – | – |
| ACHN (kidney, adherent) | 0.188 | 31.6 nM | 0.543 | 1660 nM | 0.977 | > 1000 nM | 0.748 | 926 nM | 0.945 | > 20000 nM | 0.954 | > 1020 nM | 0.983 | > 2560 nM | 0.9 | > 12.5 nM | 0.844 | 8690 nM | 0.948 | > 128 nM | – | – | – | – |
| NCI-H2029 (small cell lung carcinoma, adherent) | 0.465 | 259 nM | 0.486 | 1150 nM | 0.99 | > 1000 nM | 0.941 | > 2560 nM | 0.985 | > 20000 nM | 0.982 | > 1020 nM | 0.98 | > 2560 nM | 0.976 | > 12.5 nM | 0.949 | > 10000 nM | 0.925 | > 128 nM | – | – | – | – |
| RT4 (bladder, adherent) | 0.26 | 63.1 nM | 0.325 | 395 nM | 0.985 | > 1000 nM | 0.867 | 2530 nM | 0.857 | 17600 nM | 0.987 | > 1020 nM | 0.987 | > 2560 nM | 0.904 | > 12.5 nM | 0.987 | > 10000 nM | 0.78 | 55.3 nM | – | – | 0.979 | > 2000 nM |
| BT-549 (breast, adherent) | – | – | – | – | – | – | – | – | – | – | – | – | – | – | 0.674 | 2.91 nM | 0.758 | – | – | – | 0.971 | > 10000 nM | 0.975 | > 2000 nM |
| H2722 (mesothelioma, adherent) | 0.179 | 27.5 nM | 0.462 | 968 nM | 0.982 | > 1000 nM | 0.739 | 892 nM | 0.968 | > 20000 nM | 0.945 | > 1020 nM | 0.962 | > 2560 nM | 0.956 | > 12.5 nM | 0.911 | > 10000 nM | 0.984 | > 128 nM | – | – | – | – |
| ABC-1 (lung adenocarcinoma, adherent) | 0.035 | < 20 nM | 0.508 | 1320 nM | 0.979 | > 1000 nM | 0.737 | 888 nM | 0.837 | 17500 nM | 0.951 | > 1020 nM | 0.725 | 809 nM | 0.885 | > 12.5 nM | 0.877 | > 10000 nM | 0.811 | 85.9 nM | – | – | – | – |
| PANC-08-13 (pancreas, adherent) | 0.092 | < 20 nM | 0.728 | 6780 nM | 0.978 | > 1000 nM | 0.7 | 693 nM | 0.982 | > 20000 nM | 0.97 | > 1020 nM | 0.633 | 414 nM | 0.866 | > 12.5 nM | 0.902 | > 10000 nM | 0.967 | > 128 nM | – | – | – | – |
